# Data published in the supplement of paper PMC8728848.
# Some of the results follow.
# B1: SJA (Sophora japonica) (protein)
# chain: FLGLFNSGGYSSSYQIVAVEFDTYINEWDPKTRHIGIDINSINSTKTVTWGWENGEVAIVLISYKAATETLTVSLTYPSSQTSYILSAAVDLKSILPEWVRIGF
# Tests used:
# Test in all cases: glycan array binding signal (z-score within array); higher = stronger binding
# Settings in all cases: glycan notation: IUPAC condensed, linker removed
# [1] = target: Fuc(a1-2)[GalNAc(a1-3)]Gal(b1-3)GlcNAc(b1-3)GalNAc
# Method in brief: (§1)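 The binding signal is a Z-score computed within each array. Data were drawn from 3228 arrays in the Consortium for Functional Glycomics database, restricted to those with a known protein sequence. Scores were averaged over arrays of the same protein sequence at different concentrations or buffers, and over linkers, and negative values can be taken as non-binding.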
# [2] = target: Fuc(a1-2)[GalNAc(a1-3)]Gal(b1-3)GlcNAc(b1-6)GalNAc
# Method in brief: as §1
# [3] = target: Fuc(a1-2)[GalNAc(a1-3)]Gal(b1-4)Glc
# Method in brief: as §1
# [4] = target: Fuc(a1-2)[GalNAc(a1-3)]Gal(b1-4)GlcNAc
# Method in brief: as §1
# [5] = target: Fuc(a1-2)[GalNAc(a1-3)]Gal(b1-4)GlcNAc(b1-2)Man
# Method in brief: as §1
# [6] = target: Fuc(a1-2)[GalNAc(a1-3)]Gal(b1-4)GlcNAc(b1-2)Man(a1-3)[Fuc(a1-2)[GalNAc(a1-3)]Gal(b1-4)GlcNAc(b1-2)Man(a1-6)]Man(b1-4)GlcNAc(b1-4)GlcNAc
# Method in brief: as §1
# [7] = target: Fuc(a1-2)[GalNAc(a1-3)]Gal(b1-4)GlcNAc(b1-2)Man(a1-3)[Fuc(a1-2)[GalNAc(a1-3)]Gal(b1-4)GlcNAc(b1-2)Man(a1-6)]Man(b1-4)GlcNAc(b1-4)[Fuc(a1-6)]GlcNAc
# Method in brief: as §1
# [8] = target: Fuc(a1-2)[GalNAc(a1-3)]Gal(b1-4)GlcNAc(b1-3)Gal(b1-4)GlcNAc
# Method in brief: as §1
# [9] = target: Fuc(a1-2)[GalNAc(a1-3)]Gal(b1-4)GlcNAc(b1-3)Gal(b1-4)GlcNAc(b1-3)Gal(b1-4)GlcNAc
# Method in brief: as §1
# [10] = target: Fuc(a1-2)[GalNAc(a1-3)]Gal(b1-4)GlcNAc(b1-3)GalNAc
# Method in brief: as §1
# [11] = target: Fuc(a1-2)[GalNAc(a1-3)]Gal(b1-4)GlcNAc(b1-3)[Fuc(a1-2)[GalNAc(a1-3)]Gal(b1-4)GlcNAc(b1-6)]GalNAc
# Method in brief: as §1
# [12] = target: Fuc(a1-2)[GalNAc(a1-3)]Gal(b1-4)GlcNAc(b1-6)GalNAc
# Method in brief: as §1
# [13] = target: Fuc(a1-2)[GalNAc(a1-3)]Gal(b1-4)[Fuc(a1-3)]GlcNAc
# Method in brief: as §1
# [14] = target: Fuc(a1-2)[GalNAc(a1-3)]Gal(b1-4)[Fuc(a1-3)]GlcNAc(b1-3)GalNAc
# Method in brief: as §1
# [15] = target: Fuc(a1-2)[GalNAc(a1-4)]Gal(b1-4)GlcNAc
# Method in brief: as §1
# [16] = target: Fuc(a1-2)[GalNAc(b1-3)]Gal
# Method in brief: as §1
# [17] = target: Fuc(a1-3)GlcNAc
# Method in brief: as §1
# [18] = target: Fuc(a1-3)[Gal(b1-4)]Glc6S
# Method in brief: as §1
# [19] = target: Fuc(a1-3)[Gal(b1-4)]GlcNAc
# Method in brief: as §1
# [20] = target: Fuc(a1-3)[Gal(b1-4)]GlcNAc(b1-2)Man
# Method in brief: as §1
# [21] = target: Fuc(a1-3)[Gal(b1-4)]GlcNAc(b1-2)Man(a1-3)[Fuc(a1-3)[Gal(b1-4)]GlcNAc(b1-2)Man(a1-6)]Man(b1-4)GlcNAc(b1-4)GlcNAc
# Method in brief: as §1
# [22] = target: Fuc(a1-3)[Gal(b1-4)]GlcNAc(b1-2)Man(a1-3)[Fuc(a1-3)[Gal(b1-4)]GlcNAc(b1-2)Man(a1-6)]Man(b1-4)GlcNAc(b1-4)[Fuc(a1-6)]GlcNAc
# Method in brief: as §1
# [23] = target: Fuc(a1-3)[Gal(b1-4)]GlcNAc(b1-3)Gal(b1-3)[Fuc(a1-4)]GlcNAc
# Method in brief: as §1
# [24] = target: Fuc(a1-3)[Gal(b1-4)]GlcNAc(b1-3)Gal(b1-4)[Fuc(a1-3)]GlcNAc
# Method in brief: as §1
# [25] = target: Fuc(a1-3)[Gal(b1-4)]GlcNAc(b1-3)Gal(b1-4)[Fuc(a1-3)]GlcNAc(b1-3)Gal(b1-4)[Fuc(a1-3)]GlcNAc
# Method in brief: as §1
# [26] = target: Fuc(a1-3)[Gal(b1-4)]GlcNAc(b1-3)GalNAc
# Method in brief: as §1
# [27] = target: Fuc(a1-3)[Gal(b1-4)]GlcNAc(b1-4)Gal(b1-4)[Fuc(a1-3)]GlcNAc
# Method in brief: as §1
# [28] = target: Fuc(a1-3)[Gal(b1-4)]GlcNAc(b1-4)Gal(b1-4)[Fuc(a1-3)]GlcNAc(b1-4)Gal(b1-4)[Fuc(a1-3)]GlcNAc
# Method in brief: as §1
# [29] = target: Fuc(a1-3)[Gal(b1-4)]GlcNAc(b1-6)GalNAc
# Method in brief: as §1
# [30] = target: Fuc(a1-3)[Gal(b1-4)]GlcNAc(b1-6)[Gal(b1-3)GlcNAc(b1-3)]Gal(b1-4)Glc
# Method in brief: as §1
# [31] = target: Fuc(a1-3)[Gal(b1-4)]GlcNAc6S
# Method in brief: as §1
# [32] = target: Fuc(a1-3)[Gal3S(b1-4)]Glc
# Method in brief: as §1
# [33] = target: Fuc(a1-3)[Gal3S(b1-4)]GlcNAc
# Method in brief: as §1
# [34] = target: Fuc(a1-3)[Gal3S(b1-4)]GlcNAc6S
# Method in brief: as §1
# [35] = target: Fuc(a1-3)[GalNAc(b1-4)]GlcNAc
# Method in brief: as §1
# [36] = target: Fuc(a1-3)[GalNAc(b1-4)]GlcNAc6S
# Method in brief: as §1
# [37] = target: Fuc(a1-4)GlcNAc
# Method in brief: as §1
# [38] = target: Fuc(b1-3)GlcNAc
# Method in brief: as §1
# [39] = target: Gal(a1-2)Gal
# Method in brief: as §1
# [40] = target: Gal(a1-3)Gal
# Method in brief: as §1
# [41] = target: Gal(a1-3)Gal(b1-3)GlcNAc
# Method in brief: as §1
# [42] = target: Gal(a1-3)Gal(b1-3)GlcNAc(b1-2)Man
# Method in brief: as §1
# [43] = target: Gal(a1-3)Gal(b1-3)GlcNAc(b1-2)Man(a1-3)[Gal(a1-3)Gal(b1-3)GlcNAc(b1-2)Man(a1-6)]Man(b1-4)GlcNAc(b1-4)GlcNAc
# Method in brief: as §1
# [44] = target: Gal(a1-3)Gal(b1-3)GlcNAc(b1-3)GalNAc
# Method in brief: as §1
# [45] = target: Gal(a1-3)Gal(b1-3)GlcNAc(b1-6)GalNAc
# Method in brief: as §1
binder,measurement,setting,value
B1,glycan array binding signal (z-score),[1],-0.086
same,glycan array binding signal (z-score),[2],-0.332
same,glycan array binding signal (z-score),[3],-0.2
same,glycan array binding signal (z-score),[4],-0.109
same,glycan array binding signal (z-score),[5],-0.18
same,glycan array binding signal (z-score),[6],0.157
same,glycan array binding signal (z-score),[7],-0.233
same,glycan array binding signal (z-score),[8],-0.057
same,glycan array binding signal (z-score),[9],0.248
same,glycan array binding signal (z-score),[10],-0.022
same,glycan array binding signal (z-score),[11],0.045
same,glycan array binding signal (z-score),[12],-0.199
same,glycan array binding signal (z-score),[13],0.186
same,glycan array binding signal (z-score),[14],-0.065
same,glycan array binding signal (z-score),[15],0.006
same,glycan array binding signal (z-score),[16],-0.221
same,glycan array binding signal (z-score),[17],-0.221
same,glycan array binding signal (z-score),[18],0.165
same,glycan array binding signal (z-score),[19],-0.171
same,glycan array binding signal (z-score),[20],-0.248
same,glycan array binding signal (z-score),[21],-0.2
same,glycan array binding signal (z-score),[22],-0.25
same,glycan array binding signal (z-score),[23],-0.077
same,glycan array binding signal (z-score),[24],-0.225
same,glycan array binding signal (z-score),[25],-0.319
same,glycan array binding signal (z-score),[26],-0.212
same,glycan array binding signal (z-score),[27],-0.181
same,glycan array binding signal (z-score),[28],-0.187
same,glycan array binding signal (z-score),[29],-0.083
same,glycan array binding signal (z-score),[30],-0.104
same,glycan array binding signal (z-score),[31],-0.016
same,glycan array binding signal (z-score),[32],-0.21
same,glycan array binding signal (z-score),[33],0.064
same,glycan array binding signal (z-score),[34],-0.061
same,glycan array binding signal (z-score),[35],-0.273
same,glycan array binding signal (z-score),[36],0
same,glycan array binding signal (z-score),[37],-0.331
same,glycan array binding signal (z-score),[38],-0.236
same,glycan array binding signal (z-score),[39],-0.201
same,glycan array binding signal (z-score),[40],-0.043
same,glycan array binding signal (z-score),[41],-0.041
same,glycan array binding signal (z-score),[42],-0.284
same,glycan array binding signal (z-score),[43],-0.04
same,glycan array binding signal (z-score),[44],-0.269
same,glycan array binding signal (z-score),[45],-0.312
